No constants are given. Whether binding was seen depends on the method and setting. Binding seen in cells or lysates may run through a third protein. Some binding calls cover weakened binding; strength is not graded here. For part of these data: Tags and fused reporters may be left off the sequences shown.
Tests used:
[1] = biological target: giantin (human (endogenous in VA-13, HepG2-derived)) (UniProt Q14789); experiment: pull-down; in vitro Rab6a capturing: anti-giantin Ab on Dynabeads M-270 Epoxy, incubated with lysate of VA-13 cells overexpressing Rab6(T27N) (4 °C, 12 h), then active Rab6a protein (5 μg, 4 °C, 12 h), washed in PBS; Western blot for giantin and Rab6a; only the binder purified
[2] = biological target: non-muscle Myosin IIA (NMIIA) heavy chain phosphorylated at S1943 (human (endogenous in VA-13, HepG2-derived)) (UniProt P35579); experiment: condition: only cells treated with scrambled siRNA (giantin not knocked down); co-IP; IP with anti-NMIIA-P-S1943 Ab from lysate of VA-13 cells treated with scrambled siRNA; Western blot with anti-Rab6a Ab; input normalized by Rab6a
[3] = biological target: non-muscle Myosin IIA (NMIIA) heavy chain phosphorylated at S1943 (human (endogenous in VA-13, HepG2-derived)) (UniProt P35579); experiment: co-IP; IP with anti-NMIIA-P-S1943 Ab from lysate of VA-13 cells treated with GOLGB1 (giantin) siRNAs; Western blot with anti-Rab6a Ab; input normalized by Rab6a
[4] = biological target: Rab6a GTPase (human (endogenous in VA-13, HepG2-derived)) (UniProt P20340); experiment: co-IP; IP with anti-Rab6a Ab from lysate of control (untreated) VA-13 cells; Pierce Co-Immunoprecipitation Kit; Western blot; input normalized by NMIIA-P-S1943 or giantin
[5] = biological target: Active human Rab6a full length protein (human) (UniProt P20340); experiment: pull-down; in vitro Rab6a capturing: beads with anti-giantin Ab-giantin-active Rab6a incubated at 4 °C for 12 h with lysate of EtOH-treated cells transfected with Rab6(T27N) (holds NMIIA-P-S1943) or with Rab6(T27N) plus NMIIA siRNA (lacks it); Rab6a left on the beads seen by Western blot; only the target purified
[6] = biological target: Rab6a GTPase (human (endogenous in VA-13, HepG2-derived)) (UniProt P20340); experiment: co-IP; IP with anti-Rab6a Ab from lysate of VA-13 cells treated with 35 mM EtOH for 72 h; Pierce Co-Immunoprecipitation Kit; Western blot; input normalized by NMIIA-P-S1943 or giantin
[7] = biological target: T1, β-galactoside α-2,3-sialyltransferase-1 (ST3Gal1) (human (endogenous in VA-13, HepG2-derived)) (UniProt Q11201); experiment: co-IP; IP with anti-ST3Gal1 Ab from lysate of control or EtOH-treated VA-13 cells; Western blot for NMIIA-P-S1943 and ST3Gal1
T1 sequence: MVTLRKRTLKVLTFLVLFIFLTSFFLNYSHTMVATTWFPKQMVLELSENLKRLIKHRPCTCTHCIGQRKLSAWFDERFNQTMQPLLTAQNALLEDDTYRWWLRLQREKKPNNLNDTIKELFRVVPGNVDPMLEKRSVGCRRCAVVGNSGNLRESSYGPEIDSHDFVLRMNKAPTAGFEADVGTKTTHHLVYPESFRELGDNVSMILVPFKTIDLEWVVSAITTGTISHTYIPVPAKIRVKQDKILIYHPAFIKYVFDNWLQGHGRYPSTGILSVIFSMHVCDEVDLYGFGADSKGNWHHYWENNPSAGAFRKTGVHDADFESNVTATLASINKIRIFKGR

Amino acid sequences for entries named in this document (tags omitted).
UniProt Q14789: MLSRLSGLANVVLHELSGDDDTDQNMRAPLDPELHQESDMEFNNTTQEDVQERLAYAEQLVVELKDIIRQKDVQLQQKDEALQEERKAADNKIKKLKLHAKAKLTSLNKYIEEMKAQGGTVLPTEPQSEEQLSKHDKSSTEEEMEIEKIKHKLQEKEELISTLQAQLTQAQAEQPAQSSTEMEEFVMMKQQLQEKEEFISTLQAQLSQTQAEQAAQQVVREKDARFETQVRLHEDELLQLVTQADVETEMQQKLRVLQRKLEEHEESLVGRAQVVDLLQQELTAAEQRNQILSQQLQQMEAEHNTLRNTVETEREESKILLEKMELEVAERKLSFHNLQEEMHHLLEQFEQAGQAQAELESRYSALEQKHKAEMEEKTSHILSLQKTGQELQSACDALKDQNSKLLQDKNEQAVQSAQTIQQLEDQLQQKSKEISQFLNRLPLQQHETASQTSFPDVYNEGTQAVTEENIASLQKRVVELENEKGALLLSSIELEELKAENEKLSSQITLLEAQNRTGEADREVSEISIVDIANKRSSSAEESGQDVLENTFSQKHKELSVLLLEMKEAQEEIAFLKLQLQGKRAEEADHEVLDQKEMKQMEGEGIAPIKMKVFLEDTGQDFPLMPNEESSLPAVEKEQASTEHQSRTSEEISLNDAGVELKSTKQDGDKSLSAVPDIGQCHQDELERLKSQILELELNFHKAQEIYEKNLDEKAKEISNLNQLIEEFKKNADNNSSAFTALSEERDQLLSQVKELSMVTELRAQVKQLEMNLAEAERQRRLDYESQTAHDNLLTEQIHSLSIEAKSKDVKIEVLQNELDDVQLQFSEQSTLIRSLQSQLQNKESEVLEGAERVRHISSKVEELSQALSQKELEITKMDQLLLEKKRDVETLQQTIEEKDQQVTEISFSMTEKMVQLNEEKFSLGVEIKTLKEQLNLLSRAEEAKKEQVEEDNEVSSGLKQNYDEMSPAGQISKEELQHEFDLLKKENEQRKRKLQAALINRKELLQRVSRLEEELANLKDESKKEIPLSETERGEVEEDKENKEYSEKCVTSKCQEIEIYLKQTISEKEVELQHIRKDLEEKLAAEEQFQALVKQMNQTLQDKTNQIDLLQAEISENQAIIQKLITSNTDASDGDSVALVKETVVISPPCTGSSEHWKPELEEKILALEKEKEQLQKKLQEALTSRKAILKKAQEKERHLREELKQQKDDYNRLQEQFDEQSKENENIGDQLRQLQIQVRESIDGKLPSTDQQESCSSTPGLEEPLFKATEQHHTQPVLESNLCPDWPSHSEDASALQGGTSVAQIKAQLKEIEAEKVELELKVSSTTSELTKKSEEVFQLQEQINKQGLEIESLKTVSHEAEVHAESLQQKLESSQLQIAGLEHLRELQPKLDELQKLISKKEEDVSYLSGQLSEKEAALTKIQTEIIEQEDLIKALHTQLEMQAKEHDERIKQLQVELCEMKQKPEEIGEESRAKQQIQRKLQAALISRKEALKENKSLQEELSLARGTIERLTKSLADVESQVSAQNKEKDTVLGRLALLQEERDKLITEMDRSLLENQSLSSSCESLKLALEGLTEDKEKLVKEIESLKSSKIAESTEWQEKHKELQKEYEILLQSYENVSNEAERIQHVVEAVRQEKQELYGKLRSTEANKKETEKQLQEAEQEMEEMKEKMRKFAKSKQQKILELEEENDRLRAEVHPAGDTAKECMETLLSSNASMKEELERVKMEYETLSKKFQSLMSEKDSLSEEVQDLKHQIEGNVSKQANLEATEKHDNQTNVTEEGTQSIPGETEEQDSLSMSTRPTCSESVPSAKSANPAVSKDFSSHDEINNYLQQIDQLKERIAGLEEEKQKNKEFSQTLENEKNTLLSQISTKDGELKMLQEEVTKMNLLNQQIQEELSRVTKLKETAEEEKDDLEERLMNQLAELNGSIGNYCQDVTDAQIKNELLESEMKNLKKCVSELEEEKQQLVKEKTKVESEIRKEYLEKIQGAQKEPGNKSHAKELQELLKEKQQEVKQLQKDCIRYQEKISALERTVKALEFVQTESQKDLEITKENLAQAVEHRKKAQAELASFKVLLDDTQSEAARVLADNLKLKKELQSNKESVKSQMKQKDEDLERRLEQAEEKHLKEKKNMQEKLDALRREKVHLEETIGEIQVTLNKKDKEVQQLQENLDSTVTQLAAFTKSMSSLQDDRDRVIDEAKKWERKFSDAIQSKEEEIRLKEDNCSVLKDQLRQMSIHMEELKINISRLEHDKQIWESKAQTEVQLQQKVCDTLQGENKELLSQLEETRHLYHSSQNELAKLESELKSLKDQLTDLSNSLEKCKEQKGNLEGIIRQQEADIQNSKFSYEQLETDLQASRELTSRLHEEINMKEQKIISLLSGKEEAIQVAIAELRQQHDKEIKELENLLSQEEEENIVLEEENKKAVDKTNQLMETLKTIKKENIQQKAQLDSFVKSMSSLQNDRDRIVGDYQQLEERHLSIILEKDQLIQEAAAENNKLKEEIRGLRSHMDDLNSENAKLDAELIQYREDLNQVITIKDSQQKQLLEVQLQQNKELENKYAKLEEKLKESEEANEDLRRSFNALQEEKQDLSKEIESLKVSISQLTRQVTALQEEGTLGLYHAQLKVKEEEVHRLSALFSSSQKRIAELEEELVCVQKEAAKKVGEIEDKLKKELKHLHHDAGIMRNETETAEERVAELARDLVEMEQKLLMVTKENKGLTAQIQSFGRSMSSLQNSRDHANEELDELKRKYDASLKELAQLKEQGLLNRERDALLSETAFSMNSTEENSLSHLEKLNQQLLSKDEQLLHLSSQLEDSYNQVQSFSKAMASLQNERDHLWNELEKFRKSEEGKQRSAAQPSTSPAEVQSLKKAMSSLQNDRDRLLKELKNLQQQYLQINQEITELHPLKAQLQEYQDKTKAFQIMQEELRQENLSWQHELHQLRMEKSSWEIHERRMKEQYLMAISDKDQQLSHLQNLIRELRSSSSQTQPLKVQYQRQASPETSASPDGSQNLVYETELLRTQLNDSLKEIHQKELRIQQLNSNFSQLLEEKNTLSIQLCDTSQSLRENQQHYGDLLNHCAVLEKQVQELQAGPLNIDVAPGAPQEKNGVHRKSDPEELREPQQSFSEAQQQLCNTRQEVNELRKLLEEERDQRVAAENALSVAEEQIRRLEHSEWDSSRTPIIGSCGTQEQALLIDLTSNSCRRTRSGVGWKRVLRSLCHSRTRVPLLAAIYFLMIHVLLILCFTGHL
UniProt P35579: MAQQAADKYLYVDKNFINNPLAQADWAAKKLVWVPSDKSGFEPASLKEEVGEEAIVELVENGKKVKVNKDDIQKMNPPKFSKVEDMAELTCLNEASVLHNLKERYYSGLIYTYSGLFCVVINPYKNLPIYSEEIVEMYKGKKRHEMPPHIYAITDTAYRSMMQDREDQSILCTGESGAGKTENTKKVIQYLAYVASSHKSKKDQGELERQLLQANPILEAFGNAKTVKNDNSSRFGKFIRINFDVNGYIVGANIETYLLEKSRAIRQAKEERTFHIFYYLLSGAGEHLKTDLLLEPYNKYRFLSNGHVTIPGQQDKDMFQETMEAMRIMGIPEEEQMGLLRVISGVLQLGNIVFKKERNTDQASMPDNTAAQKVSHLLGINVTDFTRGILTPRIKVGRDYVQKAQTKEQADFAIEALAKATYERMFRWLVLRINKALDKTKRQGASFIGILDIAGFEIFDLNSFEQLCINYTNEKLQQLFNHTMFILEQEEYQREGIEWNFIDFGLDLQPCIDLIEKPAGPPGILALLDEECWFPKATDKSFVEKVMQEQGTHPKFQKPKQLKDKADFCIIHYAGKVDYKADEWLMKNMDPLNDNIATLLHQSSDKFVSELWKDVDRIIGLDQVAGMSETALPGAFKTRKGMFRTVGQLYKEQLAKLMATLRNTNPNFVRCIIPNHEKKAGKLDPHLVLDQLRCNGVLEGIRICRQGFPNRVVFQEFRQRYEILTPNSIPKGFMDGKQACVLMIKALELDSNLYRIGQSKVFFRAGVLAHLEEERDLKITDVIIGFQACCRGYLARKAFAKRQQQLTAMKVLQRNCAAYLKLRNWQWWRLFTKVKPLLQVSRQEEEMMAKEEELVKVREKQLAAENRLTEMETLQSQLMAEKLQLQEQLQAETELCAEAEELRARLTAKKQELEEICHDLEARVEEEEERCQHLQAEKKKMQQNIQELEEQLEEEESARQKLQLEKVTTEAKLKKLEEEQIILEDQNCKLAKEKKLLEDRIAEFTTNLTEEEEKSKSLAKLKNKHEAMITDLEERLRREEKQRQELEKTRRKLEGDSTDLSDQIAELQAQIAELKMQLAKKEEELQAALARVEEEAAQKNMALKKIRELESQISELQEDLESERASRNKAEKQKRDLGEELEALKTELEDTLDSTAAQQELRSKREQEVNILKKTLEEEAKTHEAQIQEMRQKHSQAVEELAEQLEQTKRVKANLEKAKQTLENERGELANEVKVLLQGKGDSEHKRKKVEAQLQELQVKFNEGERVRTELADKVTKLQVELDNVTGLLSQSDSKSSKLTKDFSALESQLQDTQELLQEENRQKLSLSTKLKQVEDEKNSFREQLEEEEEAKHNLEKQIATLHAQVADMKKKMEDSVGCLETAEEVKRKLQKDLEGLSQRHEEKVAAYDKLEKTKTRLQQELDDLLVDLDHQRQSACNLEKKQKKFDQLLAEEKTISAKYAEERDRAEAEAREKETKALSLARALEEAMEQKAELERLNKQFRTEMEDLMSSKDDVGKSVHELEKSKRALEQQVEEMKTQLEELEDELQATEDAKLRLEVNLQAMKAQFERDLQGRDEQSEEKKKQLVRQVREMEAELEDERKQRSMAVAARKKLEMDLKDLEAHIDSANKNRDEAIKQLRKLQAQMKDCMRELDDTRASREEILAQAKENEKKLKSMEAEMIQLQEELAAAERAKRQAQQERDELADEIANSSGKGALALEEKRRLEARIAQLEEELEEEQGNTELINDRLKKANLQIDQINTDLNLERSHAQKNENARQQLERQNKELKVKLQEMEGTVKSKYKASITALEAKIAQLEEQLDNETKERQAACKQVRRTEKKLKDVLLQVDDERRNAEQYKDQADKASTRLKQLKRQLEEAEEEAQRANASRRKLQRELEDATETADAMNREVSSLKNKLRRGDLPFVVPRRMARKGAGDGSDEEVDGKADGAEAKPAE
UniProt P20340: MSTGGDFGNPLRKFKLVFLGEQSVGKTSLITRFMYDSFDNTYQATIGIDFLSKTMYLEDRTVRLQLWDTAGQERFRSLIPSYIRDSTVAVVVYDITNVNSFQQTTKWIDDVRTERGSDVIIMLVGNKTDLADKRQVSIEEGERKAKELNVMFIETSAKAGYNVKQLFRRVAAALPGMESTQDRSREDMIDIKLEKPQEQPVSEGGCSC

[8] = biological target: Rab6a GTPase (human (endogenous in VA-13, HepG2-derived)) (UniProt P20340); experiment: proximity ligation; Duolink in situ PLA in control VA-13 cells and hepatocytes from control rats; mouse anti-giantin + rabbit anti-Rab6a, or mouse anti-Rab6a + rabbit anti-NMIIA-P-S1943; cells with more than one red spot counted
[9] = biological target: T2, β-galactoside α-2,3-sialyltransferase-1 (ST3Gal1) cytoplasmic tail peptide (human); experiment: pull-down; N-terminally biotinylated peptides (20 μl, 0.1 mg/ml in 25% acetic acid) mixed with 20-40 μl lysate of EtOH-treated VA-13 cells, 37 °C 1 h, captured on Dynabeads M-280 Streptavidin; Western blot with anti-NMIIA-P-S1943 Ab; only the target purified
T2 sequence (peptide, biotin on the N-terminus): AGSMVTLRKRTLKV

[10] = biological target: T3, β1,3-N-acetylglucosaminyltransferase 6 (core 3 synthase) cytoplasmic tail peptide (human); experiment: as above
T3 sequence (peptide, biotin on the N-terminus): AGSMAFPCRRSLTAKTL

[11] = biological target: T4, core 2 N-acetylglucosaminyltransferase-1 (C2GnT1) cytoplasmic tail peptide (human); experiment: as above
T4 sequence (peptide, biotin on the N-terminus): MLRTLLRRRL

[12] = biological target: T5, polypeptide N-acetylgalactosaminyltransferase 2 (ppGalNAcT2) cytoplasmic tail peptide (human); experiment: as above
T5 sequence (peptide, biotin on the N-terminus): AGSMRRRSRM

[13] = biological target: T6, α-mannosidase II (Man-II) cytoplasmic tail peptide (human); experiment: as above
T6 sequence (peptide, biotin on the N-terminus): AGSMKLSRQ

[14] = biological target: T7, Control peptide Biotin-…; experiment: as above
T7 sequence (peptide, biotin on the N-terminus): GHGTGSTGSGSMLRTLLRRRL

Substance: Active human Rab6a full length protein (from UniProt P20340 1-208)
- binding [1]: binds

Substance: Rab6a GTPase (from UniProt P20340 1-208)
- binding [2]: no binding
- binding [3]: binds

Substance: giantin (from UniProt Q14789 1-3259)
- binding [4]: binds

Substance: non-muscle Myosin IIA (NMIIA) heavy chain phosphorylated at S1943 (from UniProt P35579 1-1960)
- binding [5]: binds
- binding [6]: binds
- binding [4]: no binding (condition: control cells without EtOH)
- binding [7]: binds
- binding [8]: binds weakly
- binding [9]: binds
- binding [10]: binds
- binding [11]: binds
- binding [12]: binds
- binding [13]: binds
- binding [14]: no binding

— PMC4989220
